Whole data set: some 33,000 sequences, median “E-score (-0.5 to 0.5)” near -0.012, cut for the highest 2% near 0.29. Some of the results follow.
These sequences were tested against T1, Ybr033w (UniProt P38073) (assay: PBM E-score (8-mer binding enrichment) (E-score (-0.5 to 0.5)); higher = stronger / more preferred TF binding; most listed sequences are background and not binding sites). Details: protein concentration: 200 nM; construct: GST-full length.
T1 sequence: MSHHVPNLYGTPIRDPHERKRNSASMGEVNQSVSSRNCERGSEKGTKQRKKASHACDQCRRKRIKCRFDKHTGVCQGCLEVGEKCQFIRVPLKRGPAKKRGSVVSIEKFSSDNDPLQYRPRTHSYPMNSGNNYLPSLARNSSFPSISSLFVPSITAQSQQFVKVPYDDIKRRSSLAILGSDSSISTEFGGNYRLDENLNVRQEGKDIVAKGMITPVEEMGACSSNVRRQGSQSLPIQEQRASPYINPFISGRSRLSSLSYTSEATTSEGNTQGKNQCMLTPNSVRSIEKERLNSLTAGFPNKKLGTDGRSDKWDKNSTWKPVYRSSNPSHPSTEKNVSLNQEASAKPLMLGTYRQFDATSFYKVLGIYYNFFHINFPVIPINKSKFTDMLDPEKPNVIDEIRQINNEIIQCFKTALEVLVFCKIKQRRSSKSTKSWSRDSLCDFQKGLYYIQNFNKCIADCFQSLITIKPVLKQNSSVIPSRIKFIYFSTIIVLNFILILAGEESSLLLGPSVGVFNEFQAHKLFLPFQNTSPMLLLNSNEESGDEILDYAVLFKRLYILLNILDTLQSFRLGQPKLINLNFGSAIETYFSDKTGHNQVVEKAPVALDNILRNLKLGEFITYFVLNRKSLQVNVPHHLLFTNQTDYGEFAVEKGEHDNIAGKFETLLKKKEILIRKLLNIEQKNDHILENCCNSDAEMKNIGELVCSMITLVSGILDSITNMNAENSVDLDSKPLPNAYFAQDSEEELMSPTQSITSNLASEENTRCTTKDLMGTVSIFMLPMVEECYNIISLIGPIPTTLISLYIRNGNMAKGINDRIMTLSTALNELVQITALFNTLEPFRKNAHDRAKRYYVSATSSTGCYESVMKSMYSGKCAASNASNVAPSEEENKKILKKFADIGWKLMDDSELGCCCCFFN
Method in brief: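 Yeast transcription factors carrying a GST tag, as full-length proteins or DNA-binding domains, were produced by PURExpress in vitro transcription/translation. About 100-200 nM protein was applied to universal all-10-mer Agilent arrays, double-stranded by primer extension on fresh or once-stripped slides. Bound protein was detected with fluorescent anti-GST, and scans were normalised with masliner. The Universal PBM Analysis Suite gave each ungapped eight-base word, pooled with its reverse complement, an E-score, a modified Wilcoxon-Mann-Whitney statistic.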

Row | Sequence | PBM E-score
1 | AGGAGTCG | -0.167
2 | GCGACTGA | -0.0799
3 | GTGTTAGA | 0.0758
4 | AAATCTAG | 0.132
5 | ATGCCAAC | 0.0348
6 | CAACGATA | 0.187
7 | CAGCACAG | 0.152
8 | AGATCCGC | -0.107
9 | TCAGGCGA | -0.157
10 | ATTAGTGC | 0.199
11 | GCTGGCAA | 0.108
12 | GAACAATA | 0.412
13 | AATAGGGA | 0.0137
14 | CACAGCGG | -0.122
15 | CCATGCCC | -0.28
16 | CTCACGCA | 0.233
17 | CCTGGATC | -0.0578
18 | CTGCGCAG | -0.171
19 | ATCTTCTC | 0.0573
20 | CGAACCTA | -0.0369
21 | ACCCGCAA | -0.137
22 | ACTTGTTA | 0.106
23 | ATTATAAC | 0.0262
24 | CTGGGCCA | -0.304
25 | ATTCGATC | 0.0598

Row | Sequence | PBM E-score
26 | ACTGAAGT | 0.175
27 | GACAGGCA | -0.0644
28 | GTGGGTAA | -0.0878
29 | CACGCGCC | -0.048
30 | CGGTGTAA | -0.044
31 | AAAGTATT | 0.22
32 | GGTATAGA | 0.0722
33 | GAGCAGGC | -0.231
34 | TAGGCCAA | 0.0127
35 | ATCATAAG | 0.0948
36 | AGCCCCGA | -0.181
37 | CGCTCAAC | -0.0141
38 | AGCAGGAT | -0.0861
39 | ACCCCCGC | -0.302
40 | ACATTCGA | -0.00563
41 | ATAATAAT | 0.305
42 | GTTGGGAA | -0.0729
43 | GAACAGAC | -0.00445
44 | AGCCGGGC | -0.249
45 | GGGATATA | 0.158
46 | ATGTTTAC | 0.15
47 | CACGTCAG | -0.118
48 | ATAACTAA | 0.239
49 | ACTGGTCC | -0.135
50 | CGTAGGAG | -0.204

Row | Sequence | PBM E-score
51 | GGAGGTGA | 0.0453
52 | TCCATCAA | 0.312
53 | AAACCTTG | -0.00773
54 | GGCATTAA | -0.067
55 | GGCTGCAC | -0.177
56 | GATGCTTA | -0.0956
57 | AGTCAACC | -0.0562
58 | GCGCAGAA | 0.122
59 | AAGTATCT | 0.154
60 | AAACAATG | 0.157
61 | AATAAATG | 0.194
62 | CGCCTGTA | -0.0767
63 | ATCCGGAG | 0.143
64 | CATGTCTA | -0.00971
65 | AGAAGTCG | -0.0629
66 | GTGGGCTA | -0.105
67 | CCCACCGG | -0.282
68 | GTGGATGA | -0.0688
69 | ACATGCAT | 0.0238
70 | AGAAATAA | 0.36
71 | GCCATAGA | -0.182
72 | AATGGTGA | -0.0346
73 | CGGGCTGA | -0.226
74 | AGACTTAA | -0.0476
75 | CGGCGAAA | 0.11

Row | Sequence | PBM E-score
76 | AATCTTAA | 0.101
77 | ACAGGAGT | 0.0153
78 | AGCACGGC | -0.201
79 | ACTTAGAA | 0.0484
80 | ATCCAATC | 0.125
81 | GAGTCCCC | -0.31
82 | TACGCTGA | 0.138
83 | TTATGGAA | 0.165
84 | GTCAGAGA | -0.0968
85 | ATGCAAAC | -0.0696
86 | ATTGACGA | 0.142
87 | ACTTTTAC | 0.327
88 | CAGCCTGA | -0.141
89 | CCCATAAA | -0.181
90 | CATTGCAA | 0.0231
91 | TAAAGCAA | 0.225
92 | CTCGCCCA | 0.0378
93 | AGGACGAA | -0.00148
94 | AATGCCGT | 0.129
95 | CGCAGTAG | -0.0369
96 | AATCACTA | 0.072
97 | ATTGGGGA | -0.15
98 | CATGAGCC | -0.116
99 | TGCAGCCA | -0.194
100 | CTAGTGAC | -0.0419

Row | Sequence | PBM E-score
101 | AGCCTTCA | 0.0356
102 | AATTGCCA | 0.134
103 | ATTGTCCG | 0.27
104 | CCATAGCG | -0.064
105 | TATCACCA | 0.0892
106 | AGCCAGCT | -0.18
107 | CGCATCGA | 0.137
108 | AACACCTC | -0.118
109 | CTCGATGA | 0.12
110 | GGTACAAA | 0.119
111 | GAAGATGC | -0.106
112 | ACGCGGTG | -0.125
113 | AATACAAA | 0.302
114 | AAGGGCTG | -0.0723
115 | CCGATATC | 0.0977
116 | CGCCAAAC | -0.076
117 | GGAGGGAA | -0.0794
118 | GAACCTAA | 0.0406
119 | CAGACAGG | -0.122
120 | AGATTGGA | 0.14
121 | CCTATACC | -0.107
122 | GGCGATCA | -0.195
123 | TATTCCGA | 0.398
124 | AACTTGCT | -0.0161
125 | CGCATAAC | 0.115

Row | Sequence | PBM E-score
126 | ATTACGTC | -0.0191
127 | TACTGCAA | 0.158
128 | ACCTGGAG | 0.00754
129 | CAGGCCTC | -0.38
130 | GCTCGACA | -0.178
131 | CGAAACAC | 0.124
132 | GACTTCCC | -0.18
133 | AACAAGGC | -0.142
134 | CACGATTC | -0.00267
135 | GGCATAAC | 0.0194
136 | AACATGGG | 0.103
137 | CTGTCGGA | 0.0869
138 | AAATGCAT | 0.142
139 | ATGACAGG | -0.131
140 | ACACGTGG | -0.0608
141 | AGATGCTA | 0.0151
142 | ACAAGTCA | -0.111
143 | TCCAGCCA | -0.201
144 | ACCCTTGG | -0.268
145 | AGCAAGGC | 0.0256
146 | CCAATCGC | -0.119
147 | TACAGTGA | 0.0734
148 | TGCAGGCA | -0.0889
149 | CTAGAGGC | -0.168
150 | CCGTCTCG | -0.0451

Row | Sequence | PBM E-score
151 | GTGCCGGA | -0.158
152 | AACCACTA | 0.108
153 | GCTTAACC | -0.0693
154 | GAGTAAGA | 0.191
155 | GGACGGGA | -0.221
156 | CGCTTTTA | 0.165
157 | AGTGACGC | -0.14
158 | AATATGAT | 0.317
159 | GTTCCTGA | 0.00623
160 | ATCACGGC | 0.0132
161 | AGTGCAGC | -0.103
162 | ACGATCGA | 0.135
163 | GCATCATA | 0.181
164 | ACATAGGT | 0.192
165 | ATAGAAGA | 0.0886
166 | GACCAACA | 0.139
167 | GACGATAC | -0.0445
168 | TCATAGAA | 0.134
169 | ACACTTGA | -0.0204
170 | CCACATAC | 0.153
171 | AGAGCCCC | -0.188
172 | GAAAGTAC | 0.0791
173 | AGAGCGAG | 0.00631
174 | CCTACGCC | -0.194
175 | GTAGACGA | -0.00753

Row | Sequence | PBM E-score
176 | ACACACCA | 0.111
177 | ATCACGCC | -0.0413
178 | CCGAGCCA | -0.217
179 | AAGTGATC | 0.0429
180 | CTCGGTCA | -0.101
181 | TCAGGAAA | 0.0531
182 | ATATTGGA | 0.0277
183 | GATTACGC | 0.115
184 | TAGTGGGA | -0.109
185 | ACCCGGGG | -0.237
186 | AGCGAAAG | -0.0481
187 | CATTATCA | 0.138
188 | ACCGCTAA | 0.0615
189 | AGACAATA | 0.16
190 | GCGAGAGC | -0.13
191 | AATTTAAT | 0.319
192 | AATTTGCT | 0.13
193 | CAAATGCA | -0.0284
194 | GCAAATGA | 0.182
195 | CGAAAGAG | 0.0334
196 | TAGTATGA | 0.215
197 | AACTGCTA | 0.0866
198 | GAAAGCGA | 0.101
199 | AACTAAGA | 0.138
200 | GATCTAGA | 0.0239

Row | Sequence | PBM E-score
201 | ACATCCAT | 0.144
202 | AGCCTCTG | -0.347
203 | CAGGTGTC | -0.161
204 | CCCAAAGA | -0.027
205 | AGAATGTC | -0.131
206 | TACGGACA | -0.00729
207 | ATCTTGTA | 0.0421
208 | ACACAATA | 0.251
209 | TACACGCA | -0.00703
210 | TAAGCCAA | 0.148
211 | GACAGTGA | 0.034
212 | GAACCACA | 0.0884
213 | GAGAACAC | 0.00573
214 | CGCCATAA | -0.0388
215 | TCGAAGCA | -0.184
216 | ATAAGTCC | 0.066
217 | ACCCAGAT | -0.105
218 | CGGACGTC | -0.0543
219 | GACGTGAC | -0.103

Reference: the supplement of paper PMC3334620
